Assay results taken from paper PMC6162201, “Towards a comprehensive understanding of the structural dynamics of a bacterial diterpene synthase during catalysis” (Nature Communications, 2018).

What was measured:
[1] = target: T1, CotB2 (CotB2^wt) (Streptomyces melanosporofaciens, UniProt C9K1X5); assay: X-ray crystal structure, […] A, co-crystallisation with FGGDP; format: binding; details: Mg2+ (three ions), pH 7.5; active site, closed state; formed in crystallo from FGGDP
T1 construct: C-terminal His6 tag, pET-24a, expressed in E. coli Rosetta2 (DE3)
T1 sequence (C9K1X5 1-307): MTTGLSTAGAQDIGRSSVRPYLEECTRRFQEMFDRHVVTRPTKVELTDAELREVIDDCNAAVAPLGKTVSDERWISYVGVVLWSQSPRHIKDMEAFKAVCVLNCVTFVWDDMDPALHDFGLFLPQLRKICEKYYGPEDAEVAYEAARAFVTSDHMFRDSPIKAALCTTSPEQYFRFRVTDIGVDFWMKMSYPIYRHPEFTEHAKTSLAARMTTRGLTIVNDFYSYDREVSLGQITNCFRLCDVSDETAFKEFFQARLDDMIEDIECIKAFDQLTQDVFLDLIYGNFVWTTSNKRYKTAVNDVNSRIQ

[2] = target: T1, CotB2 (CotB2^wt); assay: co-crystallisation; turnover in crystallo; format: binding; details: Mg2+, pH 7.5; cyclised in crystallo, seen only as F-Dola plus diphosphate
Description: Instead, we detected clearly resolved electron density

[3] = target: T1, CotB2 (CotB2^wt); assay: GC/MS product formation; format: cell-based; details: turnover to cyclooctat-9-en-7-ol; assay format not told in main text

C=C(C)[C@@H]1CC[C@]2(C)C/C(F)=C(\C)CC/C=C(/C)CC[C@H]12 [F-Dola, 2-fluoro-3,7,18-dolabellatriene]
X-ray crystal structure, 1.8 A, co-crystallisation with FGGDP [1]: ring-like structure positioned in the active site that we interpret as the reaction intermediate

CC(C)=CCC/C(C)=C/CC/C(C)=C/CC/C(C)=C(\F)COP(=O)(O)OP(=O)(O)O [FGGDP]
co-crystallisation; turnover in crystallo [2]: we did not observe the entire FGGDP molecule. Instead, we detected clearly resolved electron density

CC(C)=CCC/C(C)=C/CC/C(C)=C/CC/C(C)=C/COP(=O)(O)OP(=O)(O)O [GGDP, geranylgeranyl diphosphate]
GC/MS product formation [3]: GC/MS spectrum to monitor product formation by CotB2^wt (black) and CotB2^ΔC (red)
